The values below come from a collection of fitness landscapes (doi:10.1038/s41467-024-54723-y).

The full ranking holds about 18,000 sequences; the median of “TetR repression strength (sort-seq, GFP reporter)” is about 0.23, and the highest 2% start at about 0.68. This is one part of the list.

For the assay, the target named is TetR (class B, Tn10) (UniProt P04483). Kind of assay: TetR repression strength (sort-seq, GFP reporter) (relative to tetO2 = 1); higher = stronger repression. Particulars: E. coli. Put shortly: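 Escherichia coli SIG10-MAX cells carried a low-copy plasmid library in which eight operator positions were randomized between a constitutive promoter and sfGFP, and TetR was expressed constitutively. After 5 h of growth at 37 °C in LB with 50 µg/mL chloramphenicol, 10^6 cells were FACS-sorted into 13 fluorescence bins, and each bin was Illumina-sequenced. Repression strength was the top bin index plus one minus the read-weighted mean bin, divided by the value for the unaltered operator. Across three independent transformations, only library members with ≥30 reads in every replicate and a CV ≤0.5 were averaged.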
Chain of UniProt P04483 (P04483 whole entry): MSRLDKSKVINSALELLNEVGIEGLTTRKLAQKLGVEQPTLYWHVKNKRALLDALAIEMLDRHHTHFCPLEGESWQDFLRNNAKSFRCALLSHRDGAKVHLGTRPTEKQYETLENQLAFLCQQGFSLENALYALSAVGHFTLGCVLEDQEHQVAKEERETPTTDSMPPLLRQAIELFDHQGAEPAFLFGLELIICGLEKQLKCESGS
In turn, TCCCCTAGAGTAAGTGAGA returned a TetR repression strength of 0.252. The same measure for TCCCTAACAGTATATGAGA: 0.284. For TCCCGTCGAGTAAAGGAGA the value was 0.22; for TCCCTCAGAGTACAGGAGA, 0.104. The same measure for TCCCTTCAAGTAAATGAGA: 0.562; for TCCCGGAGAGTGGTAGAGA: 0.16. Sequence TCCCCTATAGTGGTCGAGA registered a TetR repression strength of 0.427. For TCCCAGCGAGTGACCGAGA the value was 0.694.

TCCCTTAAAGTGCGAGAGA registered a TetR repression strength of 0.289. The same measure for TCCCTCGGAGTGGACGAGA: 0.107. The same measure for TCCCTCCGAGTGAGGGAGA: 0.346. The same measure for TCCCCAGTAGTCGGAGAGA: 0.136. TCCCATGTAGTCGGGGAGA gave a TetR repression strength of 0.215. The same measure for TCCCCTAAAGTACATGAGA: 0.282; for TCCCGGGCAGTGGCAGAGA: 0.472; for TCCCTTGCAGTTTTGGAGA: 0.234. For TCCCCCGGAGTCGTTGAGA the value was 0.255; for TCCCTGTCAGTGATCGAGA, 0.734; for TCCCTATGAGTGCATGAGA, 0.311. For TCCCGTGTAGTGAAGGAGA the value was 0.0744; for TCCCGGGTAGTCTGAGAGA, 0.147; for TCCCATACAGTCAGCGAGA, 0.187. TCCCCAGTAGTACTTGAGA registered a TetR repression strength of 0.0729. For TCCCAGGCAGTCTTGGAGA the value was 0.252; for TCCCTGGCAGTGTTAGAGA, 0.219; for TCCCAGCCAGTTGGAGAGA, 0.355. The same measure for TCCCGATGAGTGACTGAGA: 0.333; for TCCCTATGAGTGGCCGAGA: 0.402; for TCCCATTTAGTGTCCGAGA: 0.311. For TCCCGCTCAGTTTCTGAGA the value was 0.426; for TCCCATGGAGTGGAGGAGA, 0.0894. In turn, TCCCAGATAGTTGGGGAGA showed a TetR repression strength of 0.174. For TCCCATGGAGTTAGTGAGA the value was 0.232. For TCCCGGCAAGTGAACGAGA the value was 0.496; for TCCCCCTGAGTATTGGAGA, 0.104. The same measure for TCCCTGGTAGTCAAGGAGA: 0.117; for TCCCCTCGAGTGACGGAGA: 0.101.

For TCCCGGATAGTGACCGAGA, the TetR repression strength was determined as 0.131. For TCCCCGGTAGTTACGGAGA the value was 0.201; for TCCCAGTAAGTCCCCGAGA, 0.233. For TCCCCACGAGTGGTCGAGA the value was 0.173; for TCCCAGGGAGTTACCGAGA, 0.112; for TCCCTCCGAGTCATCGAGA, 0.264. For TCCCTTCGAGTTAGAGAGA the value was 0.228. For TCCCAGGCAGTTGAAGAGA, the TetR repression strength came out at 0.182. For TCCCACTCAGTTCTAGAGA the value was 0.611. For TCCCCTTCAGTTGAGGAGA the value was 0.079. On to TCCCGTGTAGTCTGCGAGA, for which the TetR repression strength turned out to be 0.0873. For TCCCGAATAGTGGTGGAGA the value was 0.306; for TCCCCCGCAGTTGCGGAGA, 0.0787; for TCCCGGTGAGTCGTTGAGA, 0.289. The same measure for TCCCGAGCAGTAAAGGAGA: 0.0954. For TCCCGCTGAGTTGGGGAGA the value was 0.28; for TCCCTAATAGTGGTCGAGA, 0.278; for TCCCCCCAAGTTGATGAGA, 0.369. The sequence TCCCTCTGAGTGCTAGAGA had a TetR repression strength of 0.333.

As to TCCCGAAGAGTGAGTGAGA, the TetR repression strength worked out at 0.207. TCCCATAGAGTGTAAGAGA had a TetR repression strength of 0.309. For TCCCGAGGAGTAAGGGAGA the value was 0.168; for TCCCGGAAAGTGGCTGAGA, 0.196. Regarding TCCCCAAGAGTAAGGGAGA, the TetR repression strength stood at 0.0854. The same measure for TCCCGCTGAGTAAATGAGA: 0.257. For TCCCTATAAGTCAGTGAGA the value was 0.427.

The sequence TCCCTCTCAGTGCAAGAGA showed a TetR repression strength of 0.607.

With TCCCTGCCAGTGCGAGAGA, the TetR repression strength amounted to 0.407. For TCCCGCTCAGTCCTGGAGA the value was 0.63; for TCCCAGGTAGTCGCGGAGA, 0.151. Take TCCCGCATAGTGATAGAGA: the TetR repression strength is 0.512. The same measure for TCCCTTACAGTTCGTGAGA: 0.274. TCCCCTCTAGTTTACGAGA returned a TetR repression strength of 0.319.

For TCCCTACTAGTTTGGGAGA, the TetR repression strength turned out to be 0.259. Turning to TCCCATTAAGTTGGGGAGA, the TetR repression strength was 0.112. The same measure for TCCCGTAAAGTTGAAGAGA: 0.271; for TCCCTGGAAGTTCGCGAGA: 0.207; for TCCCCGGTAGTGGCGGAGA: 0.17. For TCCCATACAGTTAGGGAGA the value was 0.512. The sequence TCCCTGAGAGTGTCGGAGA returned a TetR repression strength of 0.242. The same measure for TCCCCAGGAGTCGGTGAGA: 0.313; for TCCCGAGTAGTCTTAGAGA: 0.243; for TCCCCTGAAGTATTGGAGA: 0.143. TCCCGCTGAGTTGTGGAGA registered a TetR repression strength of 0.0444. For TCCCTGTCAGTGATAGAGA the value was 0.863; for TCCCGCATAGTGGGTGAGA, 0.0459; for TCCCTAAAAGTGGAGGAGA, 0.182. The same measure for TCCCAGCCAGTTTGTGAGA: 0.19. For TCCCATTGAGTTCACGAGA the value was 0.468. In the case of TCCCACAAAGTCGCCGAGA, the TetR repression strength amounted to 0.439. The sequence TCCCCGGGAGTGCAAGAGA displayed a TetR repression strength of 0.346. For TCCCATGTAGTCCAGGAGA the value was 0.595; for TCCCTGGAAGTGTGCGAGA, 0.207. On to TCCCATGGAGTCAATGAGA, for which the TetR repression strength was determined as 0.0471. Regarding TCCCGGCAAGTACCGGAGA, the TetR repression strength is 0.223.

Take TCCCTGGAAGTCTGCGAGA: the TetR repression strength amounted to 0.

For the sequence TCCCAATTAGTAACCGAGA, the TetR repression strength is 0.459. For the sequence TCCCGACGAGTACCTGAGA, the TetR repression strength was 0.245. Take TCCCTAAAAGTATATGAGA: the TetR repression strength turned out to be 0.328. For TCCCATCGAGTCGCAGAGA the value was 0.329; for TCCCGATCAGTTTAGGAGA, 0.181. For TCCCACTAAGTACTGGAGA the value was 0.444. For TCCCGGCCAGTTATAGAGA the value was 0.635; for TCCCCGCCAGTGCAAGAGA, 0.352; for TCCCGTGAAGTGGTCGAGA, 0.0333.
